# In the supplement of paper PMC4967469:
# The IC50 comes from the fitted curve, where viability falls to half of the control; a limit (>, <) means that the fit lies beyond the doses tested. AUC, from the same fit, is the share of area under the viability curve across the 256-fold dose range; the more sensitive the line, the further below 1. The top dose, if marked as inferred, was calculated from the reported fits.
# Legend:
# Test in all cases: Viability of human cancer cell lines after 72 h of drug (GDSC screen)
# PFI-1 = compound: COc1ccccc1S(=O)(=O)Nc1ccc2c(c1)CN(C)C(=O)N2 [PFI-1]; conditions: top dose 10 µM; top dose inferred
# Experimental: (§1)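 Human cancer cell lines in 384-well plates, medium with 10% serum, drug for 72 h over a 256-fold dose range (nine 2-fold or five 4-fold steps up to the top dose). Adherent lines were fixed and stained with the nucleic acid dye Syto60, suspension lines read with resazurin; signal relative to control wells, capped at 0 and 100%. One two-parameter sigmoid per drug and line, fitted in a mixed model over all curves with the slope shared within a line.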
# Tipifarnib = compound: Cn1cncc1[C@@](N)(c1ccc(Cl)cc1)c1ccc2c(c1)c(-c1cccc(Cl)c1)cc(=O)n2C [Tipifarnib]; conditions: top dose 16 µM; top dose inferred
# Experimental: as §1
# GSK-1904529A = compound: CCc1cc(Nc2nccc(-c3c(-c4ccc(OC)c(C(=O)Nc5c(F)cccc5F)c4)nc4ccccn34)n2)c(OC)cc1N1CCC(N2CCN(S(C)(=O)=O)CC2)CC1 [GSK-1904529A]; conditions: top dose 1.024 µM; top dose inferred
# Experimental: as §1
# BMS-509744 = compound: COc1cc(C)c(Sc2cnc(NC(=O)c3ccc(CNC(C)C(C)(C)C)cc3)s2)cc1C(=O)N1CCN(C(C)=O)CC1 [BMS-509744]; conditions: top dose 10.24 µM; top dose inferred
# Experimental: as §1
# NG-25 = compound: CCN1CCN(Cc2ccc(NC(=O)c3ccc(C)c(Oc4ccnc5[nH]ccc45)c3)cc2C(F)(F)F)CC1 [NG-25]; conditions: top dose 10.24 µM; top dose inferred
# Experimental: as §1
Cell Line,AUC (PFI-1),IC50 (PFI-1),AUC (Tipifarnib),IC50 (Tipifarnib),AUC (GSK-1904529A),IC50 (GSK-1904529A),AUC (BMS-509744),IC50 (BMS-509744),AUC (NG-25),IC50 (NG-25)
"NCI-H1155 (large cell lung carcinoma, suspension)",0.954,> 10 µM,0.993,> 16 µM,0.993,> 1.02 µM,0.992,> 10.2 µM,0.959,> 10.2 µM
"NCI-H1304 (small cell lung carcinoma, suspension)",0.94,> 10 µM,0.981,> 16 µM,0.988,> 1.02 µM,0.988,> 10.2 µM,0.98,> 10.2 µM
"NCI-H1355 (lung adenocarcinoma, adherent)",0.898,> 10 µM,0.422,0.556 µM,0.964,> 1.02 µM,0.782,6.48 µM,0.976,> 10.2 µM
"NCI-H1395 (lung adenocarcinoma, adherent)",0.894,> 10 µM,0.894,> 16 µM,0.982,> 1.02 µM,0.959,> 10.2 µM,0.846,> 10.2 µM
"NCI-H1417 (small cell lung carcinoma, suspension)",0.734,3.36 µM,0.941,> 16 µM,0.982,> 1.02 µM,0.934,> 10.2 µM,0.921,> 10.2 µM
"NCI-H1436 (small cell lung carcinoma, suspension)",0.942,> 10 µM,0.918,> 16 µM,0.982,> 1.02 µM,0.852,9.72 µM,0.858,> 10.2 µM
"NCI-H1581 (large cell lung carcinoma, semi-adherent)",0.952,> 10 µM,0.91,> 16 µM,0.99,> 1.02 µM,0.961,> 10.2 µM,0.859,7.45 µM
"NCI-H1648 (lung adenocarcinoma, adherent)",0.976,> 10 µM,0.619,2.17 µM,0.969,> 1.02 µM,0.827,6.8 µM,0.884,> 10.2 µM
"NCI-H1666 (lung adenocarcinoma, semi-adherent)",0.805,5.62 µM,0.983,> 16 µM,0.986,> 1.02 µM,0.983,> 10.2 µM,0.98,> 10.2 µM
"NCI-H1694 (small cell lung carcinoma, suspension)",0.928,> 10 µM,0.947,> 16 µM,0.989,> 1.02 µM,0.938,> 10.2 µM,0.968,> 10.2 µM
"NCI-H1770 (non-small cell lung carcinoma, suspension)",0.976,> 10 µM,0.777,5.62 µM,0.992,> 1.02 µM,0.954,> 10.2 µM,0.957,> 10.2 µM
"NCI-H1836 (small cell lung carcinoma, suspension)",0.943,> 10 µM,0.889,> 16 µM,0.988,> 1.02 µM,0.963,> 10.2 µM,0.984,> 10.2 µM
"NCI-H1838 (lung adenocarcinoma, adherent)",0.924,> 10 µM,0.983,> 16 µM,0.984,> 1.02 µM,0.951,> 10.2 µM,0.965,> 10.2 µM
"NCI-H1869 (lung squamous cell carcinoma, adherent)",0.9,> 10 µM,0.881,> 16 µM,0.973,> 1.02 µM,0.982,> 10.2 µM,0.92,> 10.2 µM
"NCI-H1876 (small cell lung carcinoma, adherent)",0.938,> 10 µM,0.982,> 16 µM,0.985,> 1.02 µM,0.907,> 10.2 µM,0.828,6.43 µM
"NCI-H1975 (lung adenocarcinoma, adherent)",0.924,> 10 µM,0.532,1.24 µM,0.98,> 1.02 µM,0.774,4.6 µM,0.925,> 10.2 µM
"NCI-H2081 (small cell lung carcinoma, suspension)",0.982,> 10 µM,0.945,> 16 µM,0.989,> 1.02 µM,0.977,> 10.2 µM,0.948,> 10.2 µM
"NCI-H2135 (non-small cell lung carcinoma, adherent)",0.99,> 10 µM,0.737,4.64 µM,0.991,> 1.02 µM,0.963,> 10.2 µM,0.826,5.96 µM
"NCI-H2141 (small cell lung carcinoma, suspension)",0.99,> 10 µM,0.955,> 16 µM,0.988,> 1.02 µM,0.927,> 10.2 µM,0.924,> 10.2 µM

Cell Line,AUC (PFI-1),IC50 (PFI-1),AUC (Tipifarnib),IC50 (Tipifarnib),AUC (GSK-1904529A),IC50 (GSK-1904529A),AUC (BMS-509744),IC50 (BMS-509744),AUC (NG-25),IC50 (NG-25)
"NCI-SNU-1 (stomach, suspension)",0.984,> 10 µM,0.745,5.18 µM,0.988,> 1.02 µM,0.883,> 10.2 µM,0.691,2.24 µM
"NCI-SNU-5 (stomach, suspension)",0.977,> 10 µM,0.918,> 16 µM,0.989,> 1.02 µM,0.98,> 10.2 µM,0.989,> 10.2 µM
"NCI-SNU-16 (stomach, suspension)",0.797,4.1 µM,0.985,> 16 µM,0.991,> 1.02 µM,0.902,> 10.2 µM,0.986,> 10.2 µM
"NEC8 (testis, adherent)",0.821,4.67 µM,0.881,12.4 µM,0.99,> 1.02 µM,0.986,> 10.2 µM,0.886,8.32 µM
"NH-12 (neuroblastoma, adherent)",0.951,> 10 µM,0.736,5.19 µM,0.985,> 1.02 µM,0.956,> 10.2 µM,0.842,8.53 µM
"NKM-1 (acute myeloid leukaemia, suspension)",0.827,6.33 µM,0.457,0.76 µM,0.984,> 1.02 µM,0.87,,0.122,< 0.04 µM
"NMC-G1 (glioma, adherent)",0.939,> 10 µM,0.379,0.429 µM,0.964,> 1.02 µM,0.787,5.61 µM,0.811,7.01 µM
"NOMO-1 (acute myeloid leukaemia, suspension)",0.703,2.55 µM,0.888,> 16 µM,0.982,> 1.02 µM,0.98,> 10.2 µM,0.894,> 10.2 µM
"NOS-1 (osteosarcoma, adherent)",0.876,> 10 µM,0.631,2.51 µM,0.945,> 1.02 µM,0.645,1.78 µM,0.739,3.67 µM
"NTERA-2 cl.D1 (testis, adherent)",0.777,3.97 µM,0.32,0.315 µM,0.972,> 1.02 µM,0.745,3.19 µM,0.816,5.6 µM
"NU-DUL-1 (B-cell lymphoma, suspension)",0.913,9.49 µM,0.805,6.27 µM,0.988,> 1.02 µM,0.903,8.78 µM,0.223,0.123 µM
"OCI-AML2 (acute myeloid leukaemia, suspension)",0.641,1.38 µM,0.562,1.41 µM,0.995,> 1.02 µM,0.908,7.67 µM,0.858,5.23 µM
"OCI-AML3 (acute myeloid leukaemia, suspension)",0.652,1.54 µM,0.778,5.55 µM,0.99,> 1.02 µM,0.99,> 10.2 µM,0.823,4.95 µM
"OCI-AML5 (acute myeloid leukaemia, suspension)",0.899,> 10 µM,0.727,4.14 µM,0.989,> 1.02 µM,0.807,4.73 µM,0.73,2.7 µM
"OCI-LY-19 (B-cell lymphoma, suspension)",0.879,8.91 µM,0.388,0.504 µM,0.987,> 1.02 µM,0.851,6.92 µM,0.686,2.03 µM
"OCI-M1 (acute myeloid leukaemia, suspension)",0.853,5.11 µM,0.855,8.26 µM,0.995,> 1.02 µM,0.985,> 10.2 µM,0.841,4.8 µM
"OCUB-M (breast, adherent)",0.891,8.88 µM,0.386,0.51 µM,0.969,> 1.02 µM,0.85,6.2 µM,0.828,5.19 µM
"OMC-1 (cervix, adherent)",0.905,> 10 µM,0.768,6.28 µM,0.971,> 1.02 µM,0.986,> 10.2 µM,0.972,> 10.2 µM
"ONS-76 (medulloblastoma, adherent)",0.912,> 10 µM,0.545,1.34 µM,0.981,> 1.02 µM,0.939,> 10.2 µM,0.964,> 10.2 µM
